The record followed here is PMC9911399, “Two distinct binding modes provide the RNA-binding protein RbFox with extraordinary sequence specificity”.

T1: RBFOX1 RRM (Homo sapiens, UniProt Q9NWB1 109-208)
T1 sequence: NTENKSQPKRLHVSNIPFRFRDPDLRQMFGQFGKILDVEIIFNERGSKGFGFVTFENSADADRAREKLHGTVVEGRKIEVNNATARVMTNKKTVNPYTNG

B1: GAGUGAA (DNA:RNA)
RNA: GGGAGACCGGAAUUCAGAUUGUCCGAGUGAAUUAAAUCCCGUCGUAGCCACCA
DNA 1: CAATCTGAATTCCGGTCTCCC
DNA 2: TGGTGGCTACGACGGGATT
B2: UGUGUGU (DNA:RNA)
RNA: GGGAGACCGGAAUUCAGAUUGUCCUGUGUGUUUAAAUCCCGUCGUAGCCACCA
DNA 1: CAATCTGAATTCCGGTCTCCC
DNA 2: TGGTGGCTACGACGGGATT
B3: ACACUGU (DNA:RNA)
RNA: B2 RNA with U25A, G26C, U27A, G28C
DNA 1: CAATCTGAATTCCGGTCTCCC
DNA 2: TGGTGGCTACGACGGGATT
B4: UAGCUCG (DNA:RNA)
RNA: B1 RNA with G25U, U28C, G29U, A30C, A31G
DNA 1: CAATCTGAATTCCGGTCTCCC
DNA 2: TGGTGGCTACGACGGGATT
B5: GAACAGG (DNA:RNA)
RNA: B1 RNA with G27A, U28C, G29A, A30G, A31G
DNA 1: CAATCTGAATTCCGGTCTCCC
DNA 2: TGGTGGCTACGACGGGATT
B6: CUGGGCU (DNA:RNA)
RNA: B1 RNA with G25C, A26U, U28G, A30C, A31U
DNA 1: CAATCTGAATTCCGGTCTCCC
DNA 2: TGGTGGCTACGACGGGATT
B7: UCCGUCA (DNA:RNA)
RNA: B2 RNA with G26C, U27C, G30C, U31A
DNA 1: CAATCTGAATTCCGGTCTCCC
DNA 2: TGGTGGCTACGACGGGATT
B8: GCGCUGU (DNA:RNA)
RNA: B2 RNA with U25G, G26C, U27G, G28C
DNA 1: CAATCTGAATTCCGGTCTCCC
DNA 2: TGGTGGCTACGACGGGATT
B9: UUUUCGA (DNA:RNA)
RNA: B2 RNA with G26U, G28U, U29C, U31A
DNA 1: CAATCTGAATTCCGGTCTCCC
DNA 2: TGGTGGCTACGACGGGATT
B10: ACGCGCC (DNA:RNA)
RNA: B1 RNA with G25A, A26C, U28C, A30C, A31C
DNA 1: CAATCTGAATTCCGGTCTCCC
DNA 2: TGGTGGCTACGACGGGATT
B11: CCAUGUG (DNA:RNA)
RNA: B1 RNA with G25C, A26C, G27A, A30U, A31G
DNA 1: CAATCTGAATTCCGGTCTCCC
DNA 2: TGGTGGCTACGACGGGATT
B12: CCAUAGA (DNA:RNA)
RNA: B1 RNA with G25C, A26C, G27A, G29A, A30G
DNA 1: CAATCTGAATTCCGGTCTCCC
DNA 2: TGGTGGCTACGACGGGATT
B13: AUAACAA (DNA:RNA)
RNA: B1 RNA with G25A, A26U, G27A, U28A, G29C
DNA 1: CAATCTGAATTCCGGTCTCCC
DNA 2: TGGTGGCTACGACGGGATT
B14: AUCAUGA (DNA:RNA)
RNA: B2 RNA with U25A, G26U, U27C, G28A, U31A
DNA 1: CAATCTGAATTCCGGTCTCCC
DNA 2: TGGTGGCTACGACGGGATT
B15: CUUUUUU (DNA:RNA)
RNA: B2 RNA with U25C, G26U, G28U, G30U
DNA 1: CAATCTGAATTCCGGTCTCCC
DNA 2: TGGTGGCTACGACGGGATT
B16: AAACUUG (DNA:RNA)
RNA: B1 RNA with G25A, G27A, U28C, G29U, A30U, A31G
DNA 1: CAATCTGAATTCCGGTCTCCC
DNA 2: TGGTGGCTACGACGGGATT
B17: UUGGAGU (DNA:RNA)
RNA: B2 RNA with G26U, U27G, U29A
DNA 1: CAATCTGAATTCCGGTCTCCC
DNA 2: TGGTGGCTACGACGGGATT
B18: UCGCGAA (DNA:RNA)
RNA: B1 RNA with G25U, A26C, U28C
DNA 1: CAATCTGAATTCCGGTCTCCC
DNA 2: TGGTGGCTACGACGGGATT
B19: AAAUAAU (DNA:RNA)
RNA: B1 RNA with G25A, G27A, G29A, A31U
DNA 1: CAATCTGAATTCCGGTCTCCC
DNA 2: TGGTGGCTACGACGGGATT
B20: UCCCCGC (DNA:RNA)
RNA: B2 RNA with G26C, U27C, G28C, U29C, U31C
DNA 1: CAATCTGAATTCCGGTCTCCC
DNA 2: TGGTGGCTACGACGGGATT

Changes are numbered by the printed parent chain; changes in the protein carry UniProt numbers. The list shows a part of the results.

In this assay the target is T1, RBFOX1 RRM. The assay is described as follows: EMSA; HiTS-Eq, 1 nM pool, 10 min; buffer printed only for the single-RNA assays: 10 mM Tris pH 7.5, 150 mM NaCl, 3.4 mM EDTA, 0.001% NP-40, 30 C. The note with it: tags: His6 N-terminal (pET28a); label: 5' 32P. The procedure, abridged: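 These values rest on relative association constants, computed from read-count changes of each RNA species versus the control reaction and normalised to the cognate motif. Reads came from free RNA recovered by 8% native PAGE after purified RbFox RRM (wild type or mutant) at increasing concentrations was equilibrated for 10 min in 50 µL with 1 nM of a 5′-radiolabelled pool with 7 randomized nucleotides and DNA-annealed flanks.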
Consider B1, for which the binding signal was 0.00705 KA relative to UGCAUGU.
As to B2, the binding signal was 0.0346 KA relative to UGCAUGU.
For the molecule B3, the binding signal is 0.00533 KA relative to UGCAUGU.
Take B4: the binding signal is 0.0341 KA relative to UGCAUGU.
As for B5, the binding signal is 0.0111 KA relative to UGCAUGU.
As for B6, the figure is 0.0227 KA relative to UGCAUGU; as for B7, 0.00695 KA relative to UGCAUGU.
For B8, the binding signal was 0.0203 KA relative to UGCAUGU.
In the case of B9, the binding signal was 0.0193 KA relative to UGCAUGU.
Take B10: the binding signal is 0.00995 KA relative to UGCAUGU.
As for B11, the binding signal was 0.0106 KA relative to UGCAUGU.
Take B12: the binding signal is 0.00303 KA relative to UGCAUGU.
Under B13 stands 0.00146 KA relative to UGCAUGU; under B14, 0.00593 KA relative to UGCAUGU.
As for B15, the binding signal was 0.0106 KA relative to UGCAUGU.
As for B16, the binding signal is 0.0047 KA relative to UGCAUGU.
In the case of B17, the binding signal is 0.0133 KA relative to UGCAUGU.
As for B18, the figure is 0.0107 KA relative to UGCAUGU.
With B19, the binding signal was 0.000273 KA relative to UGCAUGU.
Regarding B20, the binding signal was 0.00184 KA relative to UGCAUGU.
